The full ranking holds about 2,300 sequences; the median of “median log2 fold change of GCK-ALFA target abundance (FLAG IP / Myc IP barcode read proportion)” is about 0.095, and the lowest 2% start at about -0.47. Some of the results follow.
B1: LC3A_3_1753 (protein)
chain: MEERLEEARKRLEALGFSEEVIEAALEVIELLLERGFEEAVEVLLEELEKLKDLPDEIILEMLEDIKRAVEEEDLNEEEVIEIIREEARVARSESEIIEL
B2: LC3A_free_46_2366 (protein)
chain: VKAEIDIDFLVETKEKAEELAKELEEEIKKIAEKYGVKVKIEVKIIKNPDGTYSLEIEIELEAENKETLQKAVNEIIDSIDKIAEKFNVSYIISVEIIDE
B3: LC3A_3_1370 (protein)
chain: MEEEKAATLAELKAAGKSEETIAAVEKTLDALIEKGYEEAAKTFMELLKELKDLSDEILLAFAEDVLKAVEEEDLSEEELIKFIKEEATIARNEQEIIEL
B4: LC3A_28_1269 (protein)
chain: SAIEAALAAARAAAEAARAAGEPAVIRITVPAGATAADIDRVEAGLREIAAILAGVPDQAIVIDVEAGVAQEHIDRLADTAEAIEAAHPNVTVIIALDED
B5: LC3A_3_1452 (protein)
chain: GEELIKRAEEILRKQGRSEETIEAARRLLKALQEKGYEKAMETLVKELEKMKDVSSEIVLAMLEDILYEVENKDLSEEEVVKIIKSEAAAAISEQEIIEL
B6: LC3A_free_8_2513 (protein)
chain: KSKEFANIAVKILDELEKKVVELLKEKGKSRLEILEAELLIGSIKAEIISLSDKSPEEQLKVVKEGLKELVEALEDVKEEVKKLAEEALKKIEAAKKELE
B7: LC3A_28_887 (protein)
chain: SAALESAQAALAEVKAAVAAGDQSPLVLEVTAPSDQENTEKFIALLEEIAAAASALSGVTIVIDIPESVSQENRDKIIDAAEAIEEKYPNVTVIIALPES
B8: LC3A_free_39_2189 (protein)
chain: SAEEAQKAIEELLALAKEEGEETEELAREIVKLIGEDLEYLKRLLELVKQLKEEGVDLKEALKEALELAKRLKAEGKSKEEIAEAVLELLQDRINLIPID
B9: LC3A_17_556 (protein)
chain: MEELREEIEELLKELEELVKKLKEYDPEAAKRLEKKLEEAKKLLEEGKLREALKTLEEAAREAADIFEELEHIDPEKMSILEMEANGLEIEALSLLMKLE
B10: LC3A_28_913 (protein)
chain: SALDASTAAALAEIAAAAAAGEPAVVRLRVTSADPAEARAEAERALRRLAAAAREHPGVTIIVDAPERVADEVIAVADEVQAELDAENPSNHIIVALEEP
B11: LC3A_28_637 (protein)
chain: SAIDEEIEKLLEEAERAAAAGEEVVLTLEVGGDTDEEDVEKIIEALREVAEILKDLPRTSIIIDVDGGVKQELIDKLADAAEEIEKEYPNVTVIIALDEE
B12: LC3A_3_1502 (protein)
chain: MEELLEETRKILKEMGFSEEVIELAVKALKLLLERGYEKAAETLIELLKEMKDLSNETMLEFMEEVLELLETSDDSEEEIIEKIKEIATIARNAAEIEEL
B13: LC3A_45_1970 (protein)
chain: MARVTIDLLVPKEKAEKALEIIKEKFEELEKKYKGKIRFDRETLEKSYEESKDEEEVYLEVVIEAETRELALEAADEIIEELNKELGYNVAAIISVEDLP
B14: LC3A_147_405 (protein)
chain: YRLTVDIDILIKNKPELVKELVERIEKALKAKGLEVEVEIKEEKIDENTWFIEVKIKVKAETEEEAQEAADLILDIIDEFEEENKDEILGSLISVEIEKE
B15: LC3A_free_8_2548 (protein)
chain: DMEKFVNEVLKLLDEFEEELRKAAKELGLSELDINDLELLVGETIMEVIEKAEEGPEAVLKALKEGLEEIIKEAKELSEELAKEVKKLAEELLKKVEELK
B16: LC3A_free_46_2396 (protein)
chain: IKGYIDILLKGATEEQAKEIAEYMEAKIKEEAAKKGVNVKIEVKIEKDEDGDIFINIEVEMDTDDEQVALDILDAAMDGGLEKAKELGIKASAIISVEKT
B17: LC3A_3_1625 (protein)
chain: LEEEIEETEKELRAAGWSEETLEALRETVELLLEKGYEEAARTLLEEMRALKDLPSEIALAMIEEVRRVVLEEDLDEEELIERIREIARTARNEGEIEEL
B18: LC3A_28_923 (protein)
chain: MSPEEIKKEIREKAEEAIEKGEEVLIEITIDGSISLEEALEIMEELEEEVKKLSEAGIKVYVVVDLDNVSEEVEKAIAERLDEIEEKYPLVSSIIALDEE
B19: LC3A_141_366 (protein)
chain: MTVKLEYEFTAETVEEAVEKMEEIEKEILEKAKEAGAKRAKIKVTIKYTSKDGKEKKEEKIEEETTFENLDLVLDGLLVEIASLASKGKVEVKIEVTLET

target: MAP1LC3A, Q9H492; test: median log2 fold change of GCK-ALFA target abundance (FLAG IP / Myc IP barcode read proportion) (log2 ratio); each designed protein is fused to an ALFA-tag nanobody in HEK293 cells to bring the named protein to FLAG-tagged glucokinase (GCK); Myc marks an untargeted standard; higher = target protein stabilised (more abundant); conditions: target protein: 3xFLAG-MCP-GCK-ALFA reporter; HEK293 landing pad (RPLP)
Outline: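 Sequencing of reverse-transcribed, amplified circular RNA barcodes from anti-FLAG and anti-Myc immunoprecipitates provided the readout for an ALFA-nanobody-fused binder library recombined into HEK293 landing-pad cells. Those cells were induced with 2 μg mL^−1 doxycycline, transfected with a plasmid expressing a FLAG-tagged target and a Myc-tagged standard, and lysed after 48 h. Target abundance is the per-binder median log2 ratio of FLAG to Myc barcode read proportions. Only barcodes at a proportion of ≥10^−7 in both replicates and binders with ≥3 barcodes per replicate were kept, with a 10^−6 pseudocount added before the two replicates were pooled.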

Row | Binder | median log2 fold change
1 | B1 | 0.077
2 | B2 | 0.102
3 | B3 | 0.233
4 | B4 | 0.159
5 | B5 | 0.264
6 | B6 | 0.118
7 | B7 | -0.272
8 | B8 | 0.389
9 | B9 | 0.394
10 | B10 | 0.197
11 | B11 | 0.0754
12 | B12 | 0.315
13 | B13 | 0.0441
14 | B14 | 0.0155
15 | B15 | -0.0101
16 | B16 | 0.0592
17 | B17 | 0.184
18 | B18 | -0.272
19 | B19 | 0.243

Reference: the supplement of paper PMC12632987
